The results in this text go back to PubChem BioAssay AID1963576 (National Center for Advancing Translational Sciences (NCATS), 2024).

Screen size: about 46,000 compounds; about 60 (0.1%) were called active. Inconclusive results (about 3%) are left out. Calls follow the shape of the dose curve; as a rule, active = well fitted inhibition curve with a large enough effect; inconclusive = small, poorly fitted or top-dose-only effect; inactive = no such curve, though single readings can be large or run the other way. The list shows a part of the results.

This test is described as follows: Primary qHTS assay for Inhibitors of ovarian cancer metastasis using an organotypic tumor microenvironment (TME) model. Also: nearly all actives have a fitted effect of over 65% in size.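 As to activity change, negative = inhibition: plate controls were DMSO wells for no effect and tomatine positive control wells for full effect.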 To be noted: SKOV3ip1-GFP adhesion/invasion on 3D omental model, fluorescence; series mostly up to 45.8 µM; activity change, negative = inhibition: at the top concentration. An outline of the steps: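 Adhesion/invasion was scored as fixed GFP-labeled SKOV3ip1 cell counts (488/509 nm), normalized to DMSO and tomatine controls. Cancer cells in serum-free medium, with four compound doses (0.36-46 umol/L), sat 2 hr at RT then 16 hr at 37 C on a 48 hr fibroblast/mesothelial/ECM culture.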
(In general: Quantitative high-throughput screening tests each substance at several concentrations.)
As to `CC(C)(C)CC(=O)NCC(c1ccc2c(c1)OCO2)N1CCOCC1` (stereo not given), the “activity change, negative = inhibition” value was inactive: -5.08%.
Take `CC(C)c1nn2c(=O)cc(COC(=O)c3cccs3)nc2s1`: the molecule was classed as inactive.
On to `Cc1nc2cccnc2n1-c1cccc(C(=O)NCCN(C)C)c1`, for which the “activity change, negative = inhibition” value was inactive: -1.93%.
On the same count and under the same terms, then `CC(=O)Nc1ccc2nc3c(=O)n(C)c(=O)n(C)c3nc2c1C`, with inactive: -3.85%; and `CCOC(=O)Cn1c(=O)oc2cc(S(=O)(=O)N3CCN(c4cccc(C)c4)C(C)C3)ccc21` (stereo not given), with inactive: -2.76%.
Same read-out and setting: with `COc1ccccc1CNC(=O)C(C)n1c(=O)cc(-c2ccccc2)c2c(C)nn(C)c21` (stereo not given) the figure was inactive: 1.41%; with `COc1ccc(Cl)cc1NC(=O)N1CCN(Cc2cc(=O)n3nc(-c4ccccc4)sc3n2)CC1`, inactive: -1.71%; with `O=C1CCSC2(C(=O)N(Cc3ccc(F)cc3)c3ccccc32)N1c1ccc(Cl)cc1` (stereo not given), inactive: 7.18%.
On to `Cc1cccc(OC(=O)c2cc(-c3ccc(C)c(C)c3)on2)c1`, for which the result was inactive.
Take `CCc1ccc(CNC(=O)c2cnc3sc(N4CCOCC4)nn3c2=O)cc1`: the result was inactive.
`N#Cc1nc(-c2ccc(COc3ccccc3)o2)oc1N1CCN(c2ccccc2)CC1`: the “activity change, negative = inhibition” value is inactive: -4.96%.
As for `COCCN(Cc1ccco1)C(=O)c1cc2c(=O)[nH]c3ccc(C)cc3c2s1`, the “activity change, negative = inhibition” value is inactive: -0.75%.
Still for that read-out and setting: then `CCOC(=O)c1c(S(=O)(=O)N2CCCC(C(=O)NCc3cccc(C)c3)C2)c(C)n(C)c1C` (stereo not given), with inactive: 15.4%.
Turning to `COc1cc2cc(CNc3ccccc3)c(=O)n(CC(=O)Nc3ccc(C)c(Cl)c3)c2cc1OC`, the molecule was called inactive.
`CCOC(=O)c1cnn(-c2ccc(C(=O)Nc3ccc(C(C)=O)cc3)cc2)c1N`: the “activity change, negative = inhibition” value was inactive: -12.2%.
Same read-out and setting: then `NC1=NC(c2cccc(Cl)c2)n2c(nc3ccccc32)N1` (stereo not given), with inactive: -6.14%.
As to `CCOc1ccc2c(c1)c(=O)c(S(=O)(=O)c1ccc(F)cc1)cn2CC(=O)Nc1ccccc1C`, the outcome was inactive.
`CCCS(=O)(=O)Nc1cccc(-c2cn3ccc(C)cc3n2)c1`: the “activity change, negative = inhibition” value was inactive: -4.69%.
The same measure, in the same setting: then `CCOc1c(Br)cc(C2CC(=O)Nc3cc4c(cc32)OCO4)cc1OC` (stereo not given), with inactive: -8.91%; and `COc1ccc(C2C=C(c3ccc(Cl)cc3)Nc3nc(-c4ccc(Cl)cc4)nn32)cc1` (stereo not given), with inactive: -5.93%; and `O=C(CSc1n[nH]c(-c2ccc(F)cc2)n1)NCc1ccccc1Cl`, with inactive: 0.418%.
The same measure, in the same setting: with `COc1ccc(CCNC(=O)c2cccc(Nc3nc4ccccc4nc3-n3nc(C)cc3C)c2)cc1OC` the figure was inactive: -7.77%; with `Cc1ccc(NC(=O)c2oc3ccc4c(c3c2C)C(=O)CC(C)(C)O4)c(C)c1`, inactive: -15.2%; with `O=C(COc1ccccc1)NCC(c1ccc(Cl)cc1)N1CCOCC1` (stereo not given), inactive: 2.82%.
On the same count and under the same terms, with `Cc1ccc(-c2noc(-c3ccc(N4CCN(C)CC4)c([N+](=O)[O-])c3)n2)cc1` the figure was inactive: -12%; with `COC(=O)c1ccc(NC(=O)CCCC(=O)OCC(=O)c2ccc(Cl)cc2)cc1`, inactive: -0.74%; with `COc1ccc(C)cc1NS(=O)(=O)c1c(C(=O)N2CCC(C)CC2)c(C)n(C)c1C`, inactive: 7.72%.
Consider `COc1ccc(N2CCN(S(=O)(=O)c3ccc(-c4ccno4)cc3OC)CC2)cc1`, for which the “activity change, negative = inhibition” value was inactive: 6.53%.
The same measure, in the same setting: with `COc1cccc(C(=O)N2c3ncnn3C3(CCCCC3)[C@@H]3CCCC[C@@H]32)c1` the figure was inactive: 9.55%.
On to `CC(=O)N1CCc2cc(Br)cc(S(=O)(=O)N3CCC(C(=O)Nc4ccc(C(C)C)cc4)CC3)c21`, for which the “activity change, negative = inhibition” value is inactive: 9.37%.
As for `CCOC(=O)c1ccc(-n2c(CCC(=O)O)ccc2-c2ccccc2)cc1`, the molecule was called inactive.
Same read-out and setting: then `COc1ccc(C(=O)CC2(O)C(=O)N(Cc3cccc(C(F)(F)F)c3)c3ccccc32)cc1` (stereo not given), with “inactive”.
`COc1ccc(C)cc1NC(=O)Nc1cccc(OCc2cc(=O)n3ccc(C)cc3n2)c1`: the “activity change, negative = inhibition” value was inactive: -7.57%.
For `CCOc1ccc(/C=C/c2nc(C#N)c(NC(C)c3ccccc3)o2)cc1` (stereo not given), the call was inactive.
As to `Cn1ncc2c(N3CCN(c4ccccc4F)CC3)ncnc21`, the “activity change, negative = inhibition” value is inactive: 7.02%.
On the same count and under the same terms, then `Cc1ccccc1OCC(=O)NCC(c1ccc(Cl)cc1)N1CCCCC1` (stereo not given), with inactive: 1.63%.
As to `CCc1cccc(C)c1NC(=O)CN1C(=O)C2(SCC(=O)N2c2cccc(F)c2)c2ccccc21` (stereo not given), the molecule was classed as inactive.
Regarding `CN(Cc1ccccc1)S(=O)(=O)c1ccc(NC(=O)c2cc(=O)c3ccccc3o2)cc1`, the “activity change, negative = inhibition” value is inactive: 9.78%.
Take `Cc1ccccc1NC(=O)Cn1c(=O)n(CCc2ccccc2)c(=O)c2ccccc21`: the “activity change, negative = inhibition” value is inactive: 47.3%.
Still for that read-out and setting: then `COc1ccc(OC)c(Nc2sc(C(=O)c3ccccc3)c(N)c2S(=O)(=O)c2ccccc2)c1`, with inactive: -0.726%; and `COc1ccc(C(=O)COC(=O)c2cc(-c3cccs3)nc3ccccc23)cc1`, with inactive: 0.94%.
With `O=C(Cn1ncc2c([nH]c3ccccc32)c1=O)NCCCN1CCN(c2ccccc2)CC1`, the “activity change, negative = inhibition” value is inactive: -4.61%.
Regarding `O=c1oc2ccccc2c(N2CCN(c3ccc(F)cc3)CC2)c1CN1CCCC1`, the “activity change, negative = inhibition” value was inactive: -8.16%.
Turning to `CCOc1ccc(CCNC(=O)CSc2nnnn2-c2ccccc2)cc1OCC`, the molecule was classed as inactive.
Same read-out and setting: then `COc1ccc(Br)cc1[C@@H]1Nc2ccc(C(=O)O)cc2[C@@H]2C=CC[C@@H]21`, with “inactive”.
In the case of `Cc1c(Cl)cccc1-n1ncc(C(=O)NC2CCCCC2)c1C1CCN(C(=O)OC(C)(C)C)CC1`, the “activity change, negative = inhibition” value is inactive: 3.36%.
As to `CCOC(=O)c1cccc(NC(=O)c2oc3c(c2C)-c2nn(CC)cc2CC3)c1`, the call was inactive.
Turning to `CCCCn1cc(S(=O)(=O)c2cc(C)ccc2C)c(=O)c2cc(F)c(F)cc21`, the “activity change, negative = inhibition” value was inactive: 1.19%.
As to `Cc1oc(-c2ccccc2F)nc1CN1CCC(C(=O)NCCc2ccccc2)CC1`, the outcome was inactive.
Take `CC(C(=O)Nc1ccc(OC(F)(F)F)cc1)N1Cc2ccccc2C1=O` (stereo not given): the “activity change, negative = inhibition” value was inactive: -19.3%.
For `COc1ccc(CNC(=O)C(C)n2nc(C)c3c(C)n(-c4ccccc4)nc3c2=O)c(OC)c1` (stereo not given), the “activity change, negative = inhibition” value was inactive: -27.8%.
For `CCc1nn2c(=O)cc(COC(=O)c3ccccc3NC(=O)COc3ccc(C)c(C)c3)nc2s1`, the “activity change, negative = inhibition” value was inactive: 20.7%.
For `Cc1ccc(C)c(N2CCN(CCCNC(=O)c3cnn(-c4ccc(F)cc4)c3C3CCN(C(=O)OC(C)(C)C)CC3)CC2)c1`, the “activity change, negative = inhibition” value is inactive: -15.1%.
`C#CCn1c(=O)n(-c2cccc(Cl)c2C)c(=O)c2c3c(sc21)CN(C(C)=O)CC3`: the “activity change, negative = inhibition” value is inactive: -0.569%.
Take `Cc1ccc(C)c(CSc2nnc(C)n3c2cc2sccc23)c1`: the “activity change, negative = inhibition” value was inactive: -5.88%.
Regarding `COc1ccc(-c2cnc(C)o2)cc1S(=O)(=O)Nc1ccc(OC(F)(F)F)cc1`, the molecule was classed as inactive.
Turning to `CC(=O)c1ccc(-n2c(CCC(=O)O)ccc2-c2cccs2)cc1`, the “activity change, negative = inhibition” value is inactive: 5.54%.
As for `CC(C)C(=O)Nc1nc2c(s1)CC(C(C)(C)C)CC2` (stereo not given), the result was inactive.
As for `CCOc1ccc(CNC(=O)Cn2nc(C)c3c(C)n(-c4ccc(C)cc4)nc3c2=O)cc1`, the “activity change, negative = inhibition” value is inactive: 10.4%.
In the case of `Cc1noc(/C=C/c2ccccc2F)c1S(=O)(=O)N1CCC(C(=O)NCC(C)c2ccccc2)CC1` (stereo not given), the “activity change, negative = inhibition” value is inactive: 1.66%.
